Screen size: about 150,000 compounds; about 540 (0.36%) showed an effect of 50% or more. This is one part of the list.

As a reminder, the % Inhibition is the change of the read-out against control, counted positive when it falls.

For the assay, the system named is Plasmodium falciparum. Kind of assay: Primary screen in NF54 nanoGlo assay, in single point, at 2uM, 72h; a lower Z score goes with more inhibition. Particulars: timepoint 72 hour. The assay is classed as functional, Erythrocyte.
In the case of `CCC(CC)N(CCOC)C(=O)Cn1cnnn1`, the “% Inhibition” value is -17% and the Z score is 2.31.

In the case of `CCc1ccc(-c2nn3c(-c4ccccc4C(=O)O)nc4ccccc4c3nc2=O)cc1`, the “% Inhibition” value is listed as -8% and the Z score came out at 0.97.

As to `N#Cc1ccc(CN2CCN(C(=O)C3CCCC3)CC2)c(F)c1`, the “% Inhibition” value is -20% and the Z score came to 1.82.

In the case of `Cc1noc(C(C)(C)NC(=O)Nc2ccc(C(F)(F)F)nn2)n1`, the “% Inhibition” value was -4% and the Z score is 0.53.

Regarding `O=C(c1ccc2c(=O)n3c(nc2c1)CCCC3)N1CCN(c2ccccc2)CC1`, the “% Inhibition” value was 1% and the Z score is given as -0.16.

Take `N#Cc1nccnc1NCCc1ccc[nH]1`: the “% Inhibition” value was -6% and the Z score was 0.52.

With `CCOCC1CCN(C(=O)C2(c3ccccc3)CCCN2)C1` (stereo unspecified), the “% Inhibition” value is -14% and the Z score was 1.55.

Consider `COC1(C(=O)NCc2ccc(S(C)(=O)=O)s2)CCCCCC1`, for which the “% Inhibition” value is given as 8% and the Z score is reported as -0.99.

With `O=C([C@H]1CC(=O)N(c2ccc(O)cc2)C1)N1Cc2cnn(CCO)c2C1`, the “% Inhibition” value was -9% and the Z score is given as 1.62.

With `CNC(=O)c1cc(NCCc2ccccc2OC)ccn1`, the “% Inhibition” value is listed as 3% and the Z score is reported as -0.51.

Turning to `C[C@@H]1COCCN(C(=O)Nc2cccc(OCC(=O)N3CCCC3)c2)C1`, the “% Inhibition” value is given as -7% and the Z score was 1.05.

For `C[C@H](OC(=O)CCC1CCCCC1)C(=O)Nc1ccc2c(c1)OCCO2`, the “% Inhibition” value was -5% and the Z score is 0.46.

With `O=C(NCC(F)(F)F)[C@H]1CCc2nn(CCOc3ccccc3)c(=O)n2CC1`, the “% Inhibition” value amounted to 0% and the Z score worked out at 0.03.

`COc1ccc(NC(=O)c2nc(-c3ccoc3)n(-c3ccc(C)cc3)n2)cc1`: the “% Inhibition” value was -18% and the Z score is listed as 3.16.

With `CCN1CCC(NC(=O)c2ccc(Cl)o2)(C(F)(F)F)CC1`, the “% Inhibition” value is reported as -4% and the Z score stood at 0.77.

On to `CC(C)N1CC(=O)N([C@H]2CC(C)(C)Oc3ccc(F)cc32)C1=O`, for which the “% Inhibition” value is listed as 3% and the Z score is listed as -0.39.

With `Cc1nn(C)c(C)c1NC(=O)c1cc(Cc2ccccc2)n[nH]1`, the “% Inhibition” value was -9% and the Z score is listed as 1.8.

In the case of `CCn1ccc(CN(C)CC[C@H]2CCCCO2)n1`, the “% Inhibition” value came to 3% and the Z score is -0.43.

With `CCCNC(=O)[C@@H](NC(=O)c1ccc(OC)cc1)C1CCN(C(=O)CC)CC1`, the “% Inhibition” value amounted to 13% and the Z score is recorded as -1.75.

As for `CN(CC(=O)O)C1CCN(C(=O)Nc2cccc(C#Cc3ccccc3)c2)CC1`, the “% Inhibition” value is reported as -1% and the Z score is 0.1.

Regarding `CCc1nccn1CC(=O)N1CC[C@@H]2OCc3cccc(c3)Oc3cc(OC(C)C)cc(c3)C(=O)N(CC)CC(=O)N[C@H]2C1`, the “% Inhibition” value is listed as 10% and the Z score was -1.39.

As for `O=C1CCC2(CCN(Cc3ncon3)CC2)CN1C1CC1`, the “% Inhibition” value is given as -19% and the Z score is reported as 1.78.

On to `O=C(O)[C@H](O)c1ccc(-c2cccc(-c3ccn[nH]3)c2)cc1`, for which the “% Inhibition” value is -8% and the Z score is 1.13.

With `O=C(CC1CCCC1)N1CCC[C@H](CN2CCN(c3ccccn3)CC2)C1`, the “% Inhibition” value was -4% and the Z score is 0.7.

As to `CC(=Cc1ccccc1)CN1CCC[C@H](n2cc(CO)nn2)C1`, the “% Inhibition” value is -19% and the Z score stood at 2.18.

Consider `O=C(C[C@@]1(O)C(=O)N(CN2CCOCC2)c2ccccc21)c1ccccc1Cl`, for which the “% Inhibition” value is 13% and the Z score is on record as -2.03.

Regarding `FC1(F)CCN(Cc2cnc(N3CCCC3)s2)CC1`, the “% Inhibition” value is recorded as -10% and the Z score came out at 1.58.

`CCCNC(=O)CN1C(=O)CCn2nc(-c3ccc(Cl)cc3)cc21`: the “% Inhibition” value is -11% and the Z score was found to be 1.09.

As to `O=C(Cc1cccn1-c1cccc(Cl)c1)NCCN1CCCC1`, the “% Inhibition” value is recorded as -5% and the Z score was found to be 0.78.

As for `CCCN(CCC)C(=O)Nc1ccc(Cl)c(C#N)c1`, the “% Inhibition” value is -14% and the Z score came out at 2.87.

As for `CC(C)(NCC(=O)NC(N)=O)c1ccc(Br)cc1`, the “% Inhibition” value is on record as -13% and the Z score was 2.15.

For the compound `CCn1ncnc1CNC(=O)N[C@H]1CCCCc2cc(Br)ccc21`, the “% Inhibition” value is 0% and the Z score is recorded as 0.02.

On to `O=C(NCc1ccoc1)NC[C@@H]1COc2ccccc2C1`, for which the “% Inhibition” value was -9% and the Z score is recorded as 1.73.

Turning to `O=S(=O)(NC1CC2CCC1C2)c1ccco1` (stereo unspecified), the “% Inhibition” value was -5% and the Z score was determined as 0.73.

For `COCCN(Cc1csc(-c2ccoc2)n1)CC(F)(F)F`, the “% Inhibition” value is recorded as -16% and the Z score is on record as 3.09.

Consider `O=C1OCC2(CCN(C(=O)Nc3ccccc3-c3ccccc3)CC2)O1`, for which the “% Inhibition” value is 6% and the Z score was -0.62.

On to `COc1ccc(NC(=O)c2ccc(NC(=O)[C@@H]3CCN(C)C3=O)cc2)cc1`, for which the “% Inhibition” value is listed as 3% and the Z score is -0.55.

As to `Cc1ccc(Nc2n[nH]c(N)c2NC(=O)c2ccc(C)cc2)cc1`, the “% Inhibition” value is reported as 0% and the Z score came to 0.05.

In the case of `CC(C)(C)OC(=O)NC[C@H]1CCCc2ccc(C(=O)O)cc21`, the “% Inhibition” value turned out to be 0% and the Z score was -0.07.

As for `O=C1CN(C(=O)CN2CCN(S(=O)(=O)c3ccccc3)CC2)c2ccccc2N1`, the “% Inhibition” value is recorded as -6% and the Z score was found to be 0.75.

With `Cn1cc(CNCc2cccc(C3(C)OCCO3)c2)c(C(C)(C)C)n1`, the “% Inhibition” value is given as -6% and the Z score was determined as 0.95.

Turning to `CN(C)CCN1CCC(Nc2nccc3ccc(F)cc23)CC1`, the “% Inhibition” value is given as 4% and the Z score is on record as -0.64.

As to `COc1cccc(-c2cc3n(n2)CCCN(C(=O)CC(C)C)C3)c1`, the “% Inhibition” value is listed as -9% and the Z score was 0.95.

The values above are taken from ChEMBL document CHEMBL4888484, “Replenishing the malaria drug discovery pipeline: Screening and hit evaluation of the MMV Hit Generation Library 1 (HGL1) against asexual blood stage Plasmodium falciparum ,using a nano luciferase reporter read-out” (2022).
